Screen size: about 310,000 compounds; about 18,000 (5.8%) were called active. This list was built around the results that the source calls inconclusive (neither active nor inactive); the mix of calls is not that of the screen. The call rests on the fitted dose curve; in most records, active means well fitted inhibition curve with a large enough effect; inconclusive means small, poorly fitted or top-dose-only effect, or another doubt; inactive means no such curve, though single readings can be large or run the other way. No potency is given beside an inconclusive call; the fits are too rough.
Assay: Primary qHTS for delayed death inhibitors of the malarial parasite plastid, 48 hour incubation
Settings: P. falciparum luciferase growth in erythrocytes; series mostly up to 28.7 µM
How it was run: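 Firefly luciferase activity from engineered P. falciparum reports growth; inhibitors lower the luminescent signal. Cultures contained 2% hematocrit erythrocytes at 0.1% final parasitemia.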
On the % scale 0 is the no-effect control and ±100 the full control effect; potency means the concentration at half of the fitted maximal effect; tags describe the fitted curve by direction and shape.

Row | Compound | Potency | activity change, negative = inhibition
1 | CCOc1ccc2oc(C(=O)N(Cc3nnc(-c4ccccc4Cl)o3)C3CC3)c(C)c2c1 | active: 11.7 µM | –
2 | CCCCNC(=O)C1CCN(c2nc(C)cc(C)n2)CC1 | inconclusive [inhibitor, partial curve, poor fit] | –
3 | COc1ccc(OC)c(NC(=O)c2ccno2)c1 | inactive | –
4 | Brc1ccccc1-c1nc(-c2ccccc2)no1 | inactive | –
5 | CC(NCC(O)COCc1ccc(Cl)cc1)c1ccccc1 (stereo not given) | inconclusive [inhibitor, partial curve, poor fit] | –
6 | Cc1cccc(C)c1NCc1nnc(SCC(=O)Nc2nc(-c3ccccc3)cs2)n1-c1ccccc1 | inactive | –
7 | CS(=O)(=O)c1sc2nc(-c3cccs3)cc(-c3ccccc3)c2c1N | inconclusive [inhibitor, single point] | –
8 | CCc1cccc(CC)c1NC(=O)CSc1nnc(C(C)C)n1CC | inactive | –
9 | COc1cccc(OCC(=O)NNC(=O)CCc2ccccc2)c1 | inactive | –
10 | CN1CCN(S(=O)(=O)c2ccc(N(C)Cc3ccc(C(F)(F)F)cc3)c([N+](=O)[O-])c2)CC1 | active: 10.4 µM | –
11 | COc1ccccc1N(C)S(=O)(=O)c1ccc(C(=O)NCc2ccc3c(c2)OCO3)cc1 | active: 9.28 µM | –
12 | COc1cc(C2CC(=O)C3=C(C2)Nc2ncnn2C3c2cccs2)cc(OC)c1OC (stereo not given) | inactive | –
13 | O=C(CCl)Nc1ccccc1C(=O)NCc1ccccc1 | inconclusive [inhibitor, partial curve, poor fit] | –
14 | Cc1ccc(Sc2ncccc2C(=O)NCC(c2ccc(F)cc2)N2CCOCC2)c(C)c1 (stereo not given) | inconclusive [inhibitor, partial curve] | –
15 | CCC(C)NC(=O)C1CCN(C(=O)COc2ccc3c4c(c(=O)oc3c2C)CCCC4)CC1 (stereo not given) | inconclusive [inhibitor, partial curve] | –
16 | COc1ccc(N2CCN(C(=O)CSc3nnc(COc4cccc5cccnc45)o3)CC2)cc1 | inconclusive [inhibitor, single point] | –
17 | O=C(CN1C(=O)NC2(CCCCC2)C1=O)Nc1ccc(F)cc1 | inactive | –
18 | CC(=O)C(Sc1ncnc2sc3c(c12)CCCC3)C(C)=O | inactive | –
19 | O=C(CSc1nc2ccccc2[nH]1)Nc1cc(C(F)(F)F)ccc1N1CCOCC1 | inconclusive [inhibitor, single point] | –
20 | C/C(=N\NC(=O)c1cc(-c2ccccn2)nc2ccccc12)c1cccc([N+](=O)[O-])c1 | inconclusive [inhibitor, single point] | –
21 | CCn1c2ccccc2c(=O)c2ccccc21 | inconclusive [inhibitor, single point] | –
22 | CCc1cc2c(CN3CCN(Cc4ccccc4)CC3)cc(=O)oc2cc1O | inconclusive [inhibitor, single point] | –
23 | Cc1onc(-c2ccccc2Cl)c1C(=O)OCC(=O)c1ccc[nH]1 | inconclusive [inhibitor, partial curve, poor fit] | –
24 | Cc1ccc(NC(=O)CN(C)C(=O)c2cccc(S(=O)(=O)N3CCc4ccccc43)c2)cc1 | inconclusive [inhibitor, partial curve, poor fit] | –

Row | Compound | Potency | activity change, negative = inhibition
25 | N#Cc1ccccc1S(=O)(=O)N1CCN(C(=O)[C@H](Cc2ccccc2)NC(=O)c2ccco2)CC1 | inconclusive [inhibitor, single point] | –
26 | CC1=NN=C(c2ccc(N)cc2)c2cc3c(cc2C1)OCO3 | active: 11.7 µM | –
27 | Cc1cc(C)c(NC(=O)CSc2nnc(CNC(=O)c3ccco3)o2)c(C)c1 | inactive | –
28 | CCn1c(CNC(=O)c2ccco2)nnc1SCC(=O)Nc1ccc(Br)cc1F | inconclusive [inhibitor, single point] | –
29 | COc1ccc([C@@]2(C(C)C)ON(c3ccccc3C(F)(F)F)C2=O)cc1 | active: 0.329 µM | –
30 | CC[n+]1ccc(C)c2cc(P(=O)(c3ccccc3)c3ccccc3)ccc21 | active: 13.1 µM | –
31 | O=C(COc1ccc2ccc(=O)oc2c1)Nc1ccc(CN2CCOCC2)cc1 | inconclusive [inhibitor, single point] | –
32 | Cc1ccccc1OCCNc1cc(N2CCN(CCO)CC2)ccc1[N+](=O)[O-] | inconclusive [inhibitor, single point] | –
33 | S=c1nc(C2CCCCC2)n(-c2ccccc2)[nH]1 | inconclusive [inhibitor, single point] | –
34 | C=Cn1ccnc1P(=S)(c1ccccc1)c1nccn1C=C | inactive | –
35 | CCOc1ccc(/C=C2\C(=O)c3ccccc3OC2c2ccccc2)cc1 (stereo not given) | inconclusive [inhibitor, single point] | –
36 | COc1cc(/C=N/NC(=O)c2nnn(-c3nonc3N)c2C(C)C)ccc1O | inactive | –
37 | Cc1ccc(Cl)cc1N1CCN(CC(=O)Nc2ccc(CN3CCCCC3)cc2)CC1 | inconclusive [inhibitor, single point] | –
38 | NC(=O)c1nsc(C(=O)N(c2cccc(F)c2)C(C(=O)NCC2CCCO2)c2c[nH]c3ccccc23)c1N (stereo not given) | inconclusive [inhibitor, partial curve] | –
39 | COc1ccc(Nc2nc3ccccc3nc2NS(=O)(=O)c2cccs2)c(OC)c1 | inconclusive [inhibitor, single point] | –
40 | CCSc1nnc(NC(=O)CSc2nc3c(c(=O)n2C)SC(C)C3)s1 (stereo not given) | active: 11.7 µM | –
41 | CCc1nnc(NC(=O)CSc2nc(C)cc(C)c2C#N)s1 | – | inactive: 115% [at 5.75 µM]
42 | C=CCn1c(SCc2cccc(F)c2)nc2cc(C(=O)N3CCC(C(N)=O)CC3)ccc2c1=O | inconclusive [inhibitor, partial curve] | –
43 | Cc1ccc2nc3nc(NCC4CCCO4)c(C(=O)NC4CCCC4)cc3c(=O)n2c1 (stereo not given) | inconclusive [inhibitor, single point] | –
44 | O=C(CN1C(=O)CCC1=O)Nc1ccc(S(=O)(=O)N2CCOCC2)cc1 | inactive | –
45 | CC(C)OC(=O)NC(C)(C)COC(=O)Nc1cccc(Cl)c1 | inconclusive [inhibitor, single point] | –
46 | COc1ccc(C(=O)N/N=C/c2ccccn2)cc1OC | inconclusive [inhibitor, partial curve] | –
47 | O=C(CN1CCN(c2cccc(C(F)(F)F)c2)CC1)N(C1CC1)C1CCS(=O)(=O)C1 (stereo not given) | inactive | –
48 | CSc1sc(-c2nnc(SCC(=O)Nc3ccccc3)n2C)c2c1C=CCC2 | inconclusive [inhibitor, single point] | –

Row | Compound | Potency | activity change, negative = inhibition
49 | COC(=O)c1c(NC(=O)c2ccc(S(=O)(=O)N3CCOCC3)cc2)sc2c1CCN(C)C2 | active: 13.1 µM | –
50 | Cc1cccc(OC(=O)c2cccnc2)c1 | inactive | –
51 | CC(C)(C)c1nnc2sc(SCC(=O)N3CCCc4ccccc43)nn2c1=O | inconclusive [inhibitor, partial curve] | –
52 | CC1CCC(NC(=O)c2cccc(S(=O)(=O)N3CCN(C)CC3)c2)CC1 (stereo not given) | inconclusive [inhibitor, single point] | –
53 | Cc1ccc(C(C(=O)NCC2CCCO2)N(C(=O)c2snc(C(N)=O)c2N)c2ccc(F)cc2)o1 (stereo not given) | inconclusive [inhibitor, partial curve] | –
54 | CC(C)Nc1nc2ccccc2c(=O)[nH]1 | inactive | –
55 | CSc1nc(N(CCO)CCO)c2sc3nc(-c4ccco4)c4c(c3c2n1)CCC4 | inconclusive [inhibitor, single point] | –
56 | O=C(CSc1nc2ccccc2n1Cc1ccc(Cl)cc1)N/N=C/c1ccc(C(=O)O)cc1 | inconclusive [inhibitor, partial curve, poor fit] | –
57 | COc1ccc(O)c(C(=O)c2cc(C#N)c(=O)n(-c3c(C)n(C)n(-c4ccccc4)c3=O)c2)c1 | inconclusive [inhibitor, partial curve] | –
58 | C=CCSc1nc(=O)n2ccccc2n1 | inactive | –
59 | CCSc1nnc([C@@H](N)Cc2c[nH]c3ccccc23)o1 | inactive | –
60 | COc1cccc2cc(-c3nnc(SCC(=O)NCc4ccccc4)n3C)oc12 | inconclusive [inhibitor, partial curve, poor fit] | –
61 | COc1ccc(C(C(=O)NCc2ccccc2)N(C(=O)c2snc(C(N)=O)c2N)c2ccccc2OC)cc1OC (stereo not given) | active: 10.4 µM | –
62 | COc1ccc2cc1Oc1ccc(cc1)C[C@H]1c3cc(c(OC)cc3CCN1C)Oc1c(OC)c(OC)cc3c1[C@H](C2)N(C)CC3 | active: 2.08 µM | –
63 | Cc1ccc2c(c1)N(C(=O)CCC(=O)NCCCN1CCC(Cc3ccccc3)CC1)CCO2 | inconclusive [inhibitor, single point] | –
64 | Cc1ccc(NC(=O)CN(C)C(=O)Cc2ccc(Cl)c(Cl)c2)cc1 | inconclusive [inhibitor, single point] | –
65 | O=C(O)c1ccc(N=C2SCC(=O)N2Cc2ccccc2)cc1 | inactive | –
66 | CC1CCCC(NC(=O)CN(C)S(=O)(=O)c2cnc[nH]2)C1C (stereo not given) | inconclusive [inhibitor, single point] | –
67 | Fc1cccc(Cl)c1Cn1nnc2c(NCc3ccncc3)ncnc21 | inconclusive [inhibitor, single point] | –
68 | Cn1nc(C(=O)Nc2ccc3c(c2)OCCO3)c2ccccc2c1=O | inactive | –
69 | CCOCCCNC(=O)C1CCN(S(=O)(=O)CC)CC1 | inconclusive [inhibitor, full curve] | –
70 | COc1ccccc1CC(NC(C)=O)C(=O)NC1CCN(c2nnnn2-c2ccccc2)CC1 (stereo not given) | inconclusive [inhibitor, partial curve, poor fit] | –

From PubChem BioAssay AID504832 (National Center for Advancing Translational Sciences (NCATS), 2011)
